In the supplement of paper PMC4604168 (melanoma cell lines):
Some of the results follow. Many values rest on one well or one pass, so single values are uncertain.

Tests used:
Test in all cases: cell count relative to DMSO control; melanoma cells; higher = more viable cells
Details in all cases: library dose: low library concentration; 72 h
COLO792 = tested on: COLO792
COLO800 = tested on: COLO800
COLO829 = tested on: COLO829
G361 = tested on: G361
IPC-298 = tested on: IPC-298
IST-MEL1 = tested on: IST-MEL1
LB2518-MEL = tested on: LB2518-MEL
LOXIMVI = tested on: LOXIMVI
MEL-HO = tested on: MEL-HO
MZ2-MEL = tested on: MZ2-MEL
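Also: cell number obtained by counting DAPI-stained nuclei in high-throughput microscope images with image analysis software, screen run in 1,536-well plates.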

Row | Structure (SMILES) | cell count (COLO792) [%] | cell count (COLO800) [%] | cell count (COLO829) [%] | cell count (G361) [%] | cell count (IPC-298) [%] | cell count (IST-MEL1) [%] | cell count (LB2518-MEL) [%] | cell count (LOXIMVI) [%] | cell count (MEL-HO) [%] | cell count (MZ2-MEL) [%]
1 | O=S(=O)(c1ccccc1)N(CC(F)(F)F)c1ccc(C(O)(C(F)(F)F)C(F)(F)F)cc1 + Cn1cc(/C=C2\C(=O)Nc3cccnc32)c2ccccc21 [GW441756] (first compound 1.4 µM, partner dose 0.4 µM) | 101 | 114 | 78.5 | 82.3 | 89.2 | 102 | 117 | 103 | 93 | 92
2 | COc1cc2ncnc(Nc3ccc(Oc4ccccc4)cc3)c2cc1OC + COc1cc(N2CCC(N3CCN(C)CC3)CC2)ccc1Nc1ncc(Cl)c(Nc2ccccc2S(=O)(=O)C(C)C)n1 [NVP-TAE684] (first compound 2 µM, partner dose 0.08 µM) | 96.8 | 114 | 100 | 104 | 101 | 101 | 129 | 116 | 80.1 | 95.9
3 | O=C(O)C(=O)Nc1sc2c(c1C(=O)O)CCNC2 + COc1cc(N2CCC(N3CCN(C)CC3)CC2)ccc1Nc1ncc(Cl)c(Nc2ccccc2S(=O)(=O)C(C)C)n1 [NVP-TAE684] (first compound 1.66667 µM, partner dose 0.08 µM) | 104 | 108 | 85.5 | 101 | 93.8 | 98.2 | – | 127 | 99.6 | –
4 | COC(=O)c1sccc1S(=O)(=O)Nc1ccc(Nc2ccccc2)cc1OC + Cc1cc([N+](=O)[O-])ccc1NS(=O)(=O)c1cc(Cl)ccc1Cl [FH535] (first compound 1 µM, partner dose 1 µM) | 95.9 | 89.5 | 111 | 96.3 | 94.9 | 84.7 | 122 | 97.9 | 85.5 | 95.8
5 | COc1ccc(-c2ccc3c(N4CCOCC4)nc(N4C[C@@H](C)O[C@@H](C)C4)nc3n2)cc1CO + CC(C)CCN1c2nc(Nc3cc(F)c(O)c(F)c3)ncc2N(C)C(=O)C1C [BID1870] (first compound 0.02 µM, partner dose 0.2 µM) | 95.1 | 73.2 | 81.7 | 90.1 | 91.4 | 105 | 96.7 | 180 | 87.2 | 98.6
6 | COc1cc2ncnc(Nc3ccc(Oc4ccccc4)cc3)c2cc1OC + O=C1NC(=O)/C(=C/c2ccc(-c3ccc(F)cc3O)o2)S1 [AS252424] (first compound 2 µM, partner dose 1 µM) | 98.4 | 113 | 124 | 91.6 | 92.3 | 105 | – | 99.7 | 117 | –
7 | COc1cc2ncnc(Nc3ccc(Oc4ccccc4)cc3)c2cc1OC + CC(C)CCN1c2nc(Nc3cc(F)c(O)c(F)c3)ncc2N(C)C(=O)C1C [BID1870] (first compound 2 µM, partner dose 0.2 µM) | 106 | 97.5 | 121 | 121 | 105 | 105 | – | 96.3 | 106 | –
8 | CCN(CC)CCCCNc1ncc2cc(-c3cc(OC)cc(OC)c3)c(NC(=O)NC(C)(C)C)nc2n1 + CCCCCCCCCCCC1=C(O)C(=O)C=C(O)C1=O [Embelin] (first compound 0.1 µM, partner dose 1.2 µM) | 114 | 57 | 113 | 98.7 | 98 | 97.9 | 91.6 | 120 | 84.7 | 99.8
9 | COC(=O)c1sccc1S(=O)(=O)Nc1ccc(Nc2ccccc2)cc1OC + O=C(O)C(=O)Nc1sc2c(c1C(=O)O)CCNC2 [TCS401] (first compound 1 µM, partner dose 1.66667 µM) | 112 | 75.6 | 87.7 | 86.3 | 101 | 99.6 | – | 90.3 | 94 | –
10 | O=S(=O)(c1ccccc1)N(CC(F)(F)F)c1ccc(C(O)(C(F)(F)F)C(F)(F)F)cc1 + O=C1NC(=O)/C(=C/c2ccc(-c3ccc(F)cc3O)o2)S1 [AS252424] (first compound 1.4 µM, partner dose 1 µM) | 100 | 92.9 | 99.9 | 89.4 | 90.2 | 96 | 105 | 85 | 93.5 | 95.4
11 | O=C1NC(=O)/C(=C/c2ccc(-c3ccc(F)cc3O)o2)S1 + CCCCCCCCCCCC1=C(O)C(=O)C=C(O)C1=O [Embelin] (first compound 1 µM, partner dose 1.2 µM) | 95.7 | 91.4 | 110 | 102 | 103 | 109 | – | 98.5 | 92.7 | –
12 | O=C1NC(=O)/C(=C/c2ccc(-c3ccc(F)cc3O)o2)S1 + Cc1cc([N+](=O)[O-])ccc1NS(=O)(=O)c1cc(Cl)ccc1Cl [FH535] (first compound 1 µM, partner dose 1 µM) | 87.5 | 85.3 | 112 | 94.1 | 90.1 | 88.6 | – | 90.9 | 105 | –
13 | COc1ccc(-c2ccc3c(N4CCOCC4)nc(N4C[C@@H](C)O[C@@H](C)C4)nc3n2)cc1CO + Cn1cc(/C=C2\C(=O)Nc3cccnc32)c2ccccc21 [GW441756] (first compound 0.02 µM, partner dose 0.4 µM) | 97.3 | 123 | 71.7 | 94.6 | 93.1 | 95.3 | – | 103 | 107 | –
14 | CCN(CC)CCCCNc1ncc2cc(-c3cc(OC)cc(OC)c3)c(NC(=O)NC(C)(C)C)nc2n1 + Oc1cc(-c2nc(-c3ccccc3)[nH]c2-c2ccncc2)ccc1Cl [L779450] (first compound 0.1 µM, partner dose 0.2 µM) | 85.8 | 82.2 | 81.3 | 96.3 | 76.4 | 92.9 | – | 111 | 84.7 | –
15 | COc1ccc(-c2ccc3c(N4CCOCC4)nc(N4C[C@@H](C)O[C@@H](C)C4)nc3n2)cc1CO + c1cc(-c2cnn3cc(-c4ccc(OCCN5CCCCC5)cc4)cnc23)ccn1 [Dorsomorphin] (first compound 0.02 µM, partner dose 0.4 µM) | 99 | 108 | 105 | 91 | 82.8 | 102 | 97.4 | 162 | 103 | 93.7
16 | N#Cc1c(O)c2c(-c3ccc(-c4ccccc4O)cc3)csc2[nH]c1=O + COC(=O)c1sccc1S(=O)(=O)Nc1ccc(Nc2ccccc2)cc1OC [GSK0660] (first compound 2 µM, partner dose 1 µM) | 101 | 118 | 97.6 | 113 | 105 | 109 | – | 138 | 99.7 | –
17 | CCCCCCCCCCCC1=C(O)C(=O)C=C(O)C1=O [Embelin] + O=c1cc(-c2cccc3c2Sc2ccccc2S3)oc(N2CCOCC2)c1 [KU55933] (first compound 1.2 µM, partner dose 1 µM) | 96.8 | 71.4 | 105 | 89.2 | 99 | 95.8 | – | 142 | 105 | –
